The supplement of paper PMC6828730
Structures can show the parent of a compound that is named as a salt. The list shows a part of the results. Most values come without repeats; read them as rough.

Tested on: hiPSC-derived cardiomyocytes
Assay: time to death of most cells in well after compound addition (days); higher = less cardiotoxic; extreme values may be limits of the assay
Settings: screen: 3; 10 µM

SMILES	time to death of most cells in well
COc1cc2c(c(OC)c1OC)-c1c(cc3c(c1OC)OCO3)CC(C)C(C)C2 (stereo not drawn) [Schisandrin B (Sch B)]	> 7
CC(=O)Nc1nc(C)c(-c2ccc(Cl)c(S(=O)(=O)NCCO)c2)s1	> 7
CCS(=O)(=O)Nc1ccc2[nH]c(O)c(C(=Nc3ccc(CN4CCCCC4)cc3)c3ccccc3)c2c1 [Hesperadin]	> 7
O=C(NOCC1CC1)c1ccc(F)c(F)c1Nc1ccc(I)cc1Cl	> 7
O=C(Nc1ccccc1C(=O)NC1CCCCNC1=O)c1cc2ccccc2s1 (stereo not drawn)	> 7
COc1ccc2c(c1)c(C1=C(c3c[nH]c4ccccc34)C(=O)NC1=O)cn2CCCN(C)C	> 7
COc1ccc(C(=O)Nc2sc3c(c2C(N)=O)CCCC3)cc1OC	> 7
COc1ccc(-c2ccc3c(N4CCOC[C@@H]4C)nc(N4CCOC[C@@H]4C)nc3n2)cc1CO	> 7
CCOc1cc(N2CCC(O)CC2)ccc1Nc1ncc2c(n1)N(C)c1ccccc1C(=O)N2C	> 7
C=CC(=O)Nc1ccc(CN2C(=O)N(c3cc(OC)cc(OC)c3)Cc3cnc(Nc4ccc(N5CCN(C)CC5)cc4)nc32)cc1	4.5
C=CC(=O)N1CCC[C@@H](n2nc(-c3ccc(Oc4ccccc4)cc3)c3c(N)ncnc32)C1	> 7
N#C/C(=C(/N)Sc1ccc(N)cc1)c1ccccc1C(F)(F)F	> 7
O=C(Nc1cccc(Cl)c1)Nc1ncc(CCNc2ncnc3ccsc23)s1 [SNS-314 Mesylate]	> 7
Nc1nc(NCCNc2ncc(-n3ccnc3)c(-c3ccc(Cl)cc3Cl)n2)ccc1[N+](=O)[O-]	> 7
C=CC(=O)Nc1ccc2ncnc(Nc3cccc(Br)c3)c2c1	> 7
O=C(Nc1ccc(-c2ccnc(Nc3ccc(N4CCOCC4)cc3)n2)cc1)C1CCCN1 (stereo not drawn)	3
N#Cc1ccc2[nH]c(O)c(-c3ccc(CN4CCOCC4)cn3)c2c1	> 7
O=C(NOC[C@H](O)CO)c1ccc(F)c(F)c1Nc1ccc(I)cc1F	> 7
CCN(CC)CCNC(=O)c1c(C)[nH]c(/C=C2\C(=O)Nc3ccc(F)cc32)c1C [Sunitinib Malate]	4

SMILES	time to death of most cells in well
CC(C)(C)c1ccc(S(=O)(=O)/C=C/C#N)cc1	2.5
N#CCNC(=O)c1ccc(-c2ccnc(Nc3ccc(N4CCOCC4)cc3)n2)cc1 [Momelotinib (CYT387)]	6
C=CC(=O)Nc1cccc(Oc2nc(Nc3ccc(N4CCN(C)CC4)cc3)ncc2Cl)c1	4.5
Cn1cc(/C=C2\C(=O)Nc3cccnc32)c2ccccc21	> 7
COc1ccc(-c2ccc3ncc4c(c3c2)n(-c2ccc(N3CCNCC3)c(C(F)(F)F)c2)c(=O)n4C)cn1	0.5
C[C@@H]1CN(CC(=O)Nc2ccc3c(c2)Cc2cccc(-c4cc(=O)cc(N5CCOCC5)o4)c2S3)C[C@H](C)O1	> 7
FC(F)c1nc2ccccc2n1-c1nc(N2CCOCC2)nc(N2CCOCC2)n1	> 7
CCCCCCCCCCCCCCCCCCOP(=O)([O-])OC1CC[N+](C)(C)CC1 [Perifosine (KRX-0401)]	> 7
COc1cc2nccc(Oc3ccc(NC(=O)C4(C(=O)Nc5ccc(F)cc5)CC4)cc3)c2cc1OC [Cabozantinib malate (XL184)]	> 7
COc1ccc(-c2nc(N3CCOCC3)c3sc(CN(C)c4ncc(C(=O)NO)cn4)cc3n2)cn1	5.5
CN1CCC(Nc2nc(Nc3ccc(Oc4ccccc4)cc3)c3c(=O)[nH]cc(Br)c3n2)CC1	3
COc1cc2ncnc(Nc3ccc(Cl)cc3F)c2cc1OC	> 7
Oc1ccc(Nc2nc(-c3ccc(Cl)cc3)cs2)cc1	> 7
C[C@H](Nc1ncnc2nc[nH]c12)c1cc2cccc(Cl)c2c(=O)n1-c1ccccc1 [Duvelisib (IPI-145, INK1197)]	3.5
Cc1ccc(Nc2nccc(N(C)c3ccc4c(C)n(C)nc4c3)n2)cc1S(N)(=O)=O [Pazopanib]	3
COc1cc2ncc(-c3ccccc3)nc2cc1OC [Tyrphostin AG 1296]	> 7
COc1ccc(-c2cc3c(C)nc(N)nc3n([C@H]3CC[C@H](OCCO)CC3)c2=O)cn1	> 7
CNC(=O)Nc1ccc(-c2nc(N3CC4CCC(C3)O4)c3cnn(C4CCC5(CC4)OCCO5)c3n2)cc1	> 7
CO[C@H]1C[C@@H]2CC[C@@H](C)[C@@](O)(O2)C(=O)C(=O)N2CCCC[C@H]2C(=O)O[C@H]([C@H](C)C[C@@H]2CC[C@H](n3cnnn3)[C@H](OC)C2)CC(=O)[C@H](C)/C=C(\C)[C@@H](O)[C@@H](OC)C(=O)[C@H](C)C[C@H](C)/C=C/C=C/C=C/1C [Zotarolimus(ABT-578)]	> 7
